{
  "source": "paper PMC12820563",
  "note": "This is one part of the list. The list includes weakly bound sequences.",
  "data": [
    {"target": "T1, MBP-FoxP3dN (UniProt Q99JB6)", "T1 sequence": "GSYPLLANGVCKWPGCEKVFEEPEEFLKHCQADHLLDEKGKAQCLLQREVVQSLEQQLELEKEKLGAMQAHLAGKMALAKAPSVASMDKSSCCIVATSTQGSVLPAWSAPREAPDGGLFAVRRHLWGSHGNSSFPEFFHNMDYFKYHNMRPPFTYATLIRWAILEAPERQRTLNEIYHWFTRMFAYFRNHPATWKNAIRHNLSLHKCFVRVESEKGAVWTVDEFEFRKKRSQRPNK", "assay": "PD-seq (MBP pull-down with sequencing)", "settings": "20 mM Tris-HCl pH 7.5, 100 mM NaCl, 1.5 mM MgCl2, 0.4 uM protein, 0.1 uM dsDNA library, 30 min, room temperature, amylose pull-down; high values mean tight binding; double strand, one strand shown", "values": [
      {"sequence": "GATGATTGTTCTCCCAGCTGATGAATTGGCTTGCTCGAGTAAACAAATTTTCCTAATCTTTCTGTTCAAGCGCCATCTAC", "binding signal (RPM ratio (pull-down/input))": 1.4},
      {"sequence": "GATGATTGTTCTCCCAGCTGATGAATTATGACGATCGAGTAAACAAATTTTCCTAATCTTTCTGTTCAAGCGCCATCTAC", "binding signal (RPM ratio (pull-down/input))": 0.361},
      {"sequence": "GATGATTGTTCTCCCAGCTGATGAATTTACGGTATCGAGTAAACAAATTTTCCTAATCTTTCTGTTCAAGCGCCATCTAC", "binding signal (RPM ratio (pull-down/input))": 0.88},
      {"sequence": "GATGATTGTTCTCCCAGCTGATGAATTAATGCCTTCGAGTAAACAAATTTTCCTAATCTTTCTGTTCAAGCGCCATCTAC", "binding signal (RPM ratio (pull-down/input))": 3.2},
      {"sequence": "GATGATTGTTCTCCCAGCTGATGAATTGTGTAATTCGAGTAAACAAATTTTCCTAATCTTTCTGTTCAAGCGCCATCTAC", "binding signal (RPM ratio (pull-down/input))": 3.19},
      {"sequence": "GATGATTGTTCTCCCAGCTGATGAATTAAATTGTTCGAGTAAACAAATTTTCCTAATCTTTCTGTTCAAGCGCCATCTAC", "binding signal (RPM ratio (pull-down/input))": 1.81},
      {"sequence": "GATGATTGTTCTCCCAGCTGATGAATTCAGTCGTTCGAGTAAACAAATTTTCCTAATCTTTCTGTTCAAGCGCCATCTAC", "binding signal (RPM ratio (pull-down/input))": 0.694},
      {"sequence": "GATGATTGTTCTCCCAGCTGATGAATTTCTATCTTCGAGTAAACAAATTTTCCTAATCTTTCTGTTCAAGCGCCATCTAC", "binding signal (RPM ratio (pull-down/input))": 0.333},
      {"sequence": "GATGATTGTTCTCCCAGCTGATGAATTGATTTGATCGAGTAAACAAATTTTCCTAATCTTTCTGTTCAAGCGCCATCTAC", "binding signal (RPM ratio (pull-down/input))": 0.64},
      {"sequence": "GATGATTGTTCTCCCAGCTGATGAATTCTTGTAGTCGAGTAAACAAATTTTCCTAATCTTTCTGTTCAAGCGCCATCTAC", "binding signal (RPM ratio (pull-down/input))": 0.436},
      {"sequence": "GATGATTGTTCTCCCAGCTGATGAATTCGATGCTTCGAGTAAACAAATTTTCCTAATCTTTCTGTTCAAGCGCCATCTAC", "binding signal (RPM ratio (pull-down/input))": 1.89},
      {"sequence": "GATGATTGTTCTCCCAGCTGATGAATTCGCAAGGTCGAGTAAACAAATTTTCCTAATCTTTCTGTTCAAGCGCCATCTAC", "binding signal (RPM ratio (pull-down/input))": 0.378},
      {"sequence": "GATGATTGTTCTCCCAGCTGATGAATTTTATGCCTCGAGTAAACAAATTTTCCTAATCTTTCTGTTCAAGCGCCATCTAC", "binding signal (RPM ratio (pull-down/input))": 0.845},
      {"sequence": "GATGATTGTTCTCCCAGCTGATGAATTTCCCGTGTCGAGTAAACAAATTTTCCTAATCTTTCTGTTCAAGCGCCATCTAC", "binding signal (RPM ratio (pull-down/input))": 0.287},
      {"sequence": "GATGATTGTTCTCCCAGCTGATGAATTACTGTCCTCGAGTAAACAAATTTTCCTAATCTTTCTGTTCAAGCGCCATCTAC", "binding signal (RPM ratio (pull-down/input))": 0.357},
      {"sequence": "GATGATTGTTCTCCCAGCTGATGAATTTTATCATTCGAGTAAACAAATTTTCCTAATCTTTCTGTTCAAGCGCCATCTAC", "binding signal (RPM ratio (pull-down/input))": 2.28},
      {"sequence": "GATGATTGTTCTCCCAGCTGATGAATTAGACGGATCGAGTAAACAAATTTTCCTAATCTTTCTGTTCAAGCGCCATCTAC", "binding signal (RPM ratio (pull-down/input))": 0.245},
      {"sequence": "GATGATTGTTCTCCCAGCTGATGAATTTCTTGTTTCGAGTAAACAAATTTTCCTAATCTTTCTGTTCAAGCGCCATCTAC", "binding signal (RPM ratio (pull-down/input))": 0.932},
      {"sequence": "GATGATTGTTCTCCCAGCTGATGAATTTGGTCGTTCGAGTAAACAAATTTTCCTAATCTTTCTGTTCAAGCGCCATCTAC", "binding signal (RPM ratio (pull-down/input))": 0.606},
      {"sequence": "GATGATTGTTCTCCCAGCTGATGAATTTTATCTGTCGAGTAAACAAATTTTCCTAATCTTTCTGTTCAAGCGCCATCTAC", "binding signal (RPM ratio (pull-down/input))": 0.484},
      {"sequence": "GATGATTGTTCTCCCAGCTGATGAATTTCGTTGTTCGAGTAAACAAATTTTCCTAATCTTTCTGTTCAAGCGCCATCTAC", "binding signal (RPM ratio (pull-down/input))": 3.89},
      {"sequence": "GATGATTGTTCTCCCAGCTGATGAATTGTCGAGATCGAGTAAACAAATTTTCCTAATCTTTCTGTTCAAGCGCCATCTAC", "binding signal (RPM ratio (pull-down/input))": 0.293},
      {"sequence": "GATGATTGTTCTCCCAGCTGATGAATTTCTCAAATCGAGTAAACAAATTTTCCTAATCTTTCTGTTCAAGCGCCATCTAC", "binding signal (RPM ratio (pull-down/input))": 0.218},
      {"sequence": "GATGATTGTTCTCCCAGCTGATGAATTCGGCGCTTCGAGTAAACAAATTTTCCTAATCTTTCTGTTCAAGCGCCATCTAC", "binding signal (RPM ratio (pull-down/input))": 0.768},
      {"sequence": "GATGATTGTTCTCCCAGCTGATGAATTCAGTGCTTCGAGTAAACAAATTTTCCTAATCTTTCTGTTCAAGCGCCATCTAC", "binding signal (RPM ratio (pull-down/input))": 0.767},
      {"sequence": "GATGATTGTTCTCCCAGCTGATGAATTTGTTCCATCGAGTAAACAAATTTTCCTAATCTTTCTGTTCAAGCGCCATCTAC", "binding signal (RPM ratio (pull-down/input))": 1.9},
      {"sequence": "GATGATTGTTCTCCCAGCTGATGAATTAGCCCGTTCGAGTAAACAAATTTTCCTAATCTTTCTGTTCAAGCGCCATCTAC", "binding signal (RPM ratio (pull-down/input))": 0.284},
      {"sequence": "GATGATTGTTCTCCCAGCTGATGAATTCGAACATTCGAGTAAACAAATTTTCCTAATCTTTCTGTTCAAGCGCCATCTAC", "binding signal (RPM ratio (pull-down/input))": 0.468},
      {"sequence": "GATGATTGTTCTCCCAGCTGATGAATTAAATGACTCGAGTAAACAAATTTTCCTAATCTTTCTGTTCAAGCGCCATCTAC", "binding signal (RPM ratio (pull-down/input))": 0.548},
      {"sequence": "GATGATTGTTCTCCCAGCTGATGAATTTGACTCGTCGAGTAAACAAATTTTCCTAATCTTTCTGTTCAAGCGCCATCTAC", "binding signal (RPM ratio (pull-down/input))": 0.513},
      {"sequence": "GATGATTGTTCTCCCAGCTGATGAATTCTCAACGTCGAGTAAACAAATTTTCCTAATCTTTCTGTTCAAGCGCCATCTAC", "binding signal (RPM ratio (pull-down/input))": 0.271},
      {"sequence": "GATGATTGTTCTCCCAGCTGATGAATTGCCTAGGTCGAGTAAACAAATTTTCCTAATCTTTCTGTTCAAGCGCCATCTAC", "binding signal (RPM ratio (pull-down/input))": 0.347}
    ]}
  ]
}
